Test results published in ChEMBL document CHEMBL4888484, “Replenishing the malaria drug discovery pipeline: Screening and hit evaluation of the MMV Hit Generation Library 1 (HGL1) against asexual blood stage Plasmodium falciparum ,using a nano luciferase reporter read-out” (2022).
Hit rate of the full screen: of about 150,000 compounds, about 540 (0.36%) showed an effect of 50% or more. The list shows a part of the results.

tested on: Plasmodium falciparum; experiment: Primary screen in NF54 nanoGlo assay, in single point, at 2uM, 72h; a lower Z score goes with more inhibition; format: functional, Erythrocyte; details: timepoint 72 hour

Compound	% Inhibition [%]	Z score
CN(CCCn1ccnc1)C(=O)NCc1c(F)c(F)cc(F)c1F	-13	1.37
CN(C)C(=O)NCC(=O)N1CC[C@@]2(CCCN(CC3CCC3)C2=O)C1	3	-0.35
CC(C)n1cc(Br)cc1C(=O)NCc1ncnn1C(C)(C)C	-3	0.51
CCc1cccc(/N=C(\NCc2c(C)nn(C)c2C)NC(=O)c2ccc(OC)cc2)c1	-6	1.08
Cc1cc(C)c2[nH]c(CN3CCS(=O)(=O)CC3)cc(=O)c2c1	10	-1.42
CN1C[C@H]2CC[C@@H](C1)N(Cc1coc(-c3ccccc3)n1)C2	-7	1.26
Cc1nc([C@@H]2CCCN2C(N)=O)n(C(C)(C)C)n1	-12	1.75
Cc1conc1CNc1ccc(C(F)(F)F)nn1	-1	0.07
COc1ccc(/C=C/c2cc(C(F)(F)F)n[nH]2)cc1	-1	0.05
O=C(Nc1ccc(F)cc1)[C@@H](c1ccc(F)cc1)N(C(=O)Cn1nnc2ccccc21)c1ccc(F)cc1	2	-0.19
Cc1cc2c(c(-c3ccc(CN4CCCCC4)cn3)c1)O[C@@H](CN)C2	12	-2.02
O=C(Nc1ccc2c(c1)OCCO2)N1CCC[C@H]1c1cccs1	-4	0.68
Cc1ccc(CCC(=O)Nc2c(C)noc2C)c(C)c1	-11	1.23
Cc1nn(-c2ncnc3[nH]cnc23)c2c1[C@@H](c1c(F)cccc1F)CC(=O)N2	2	-0.3
Cc1nc(-c2ncc(C(=O)N[C@@H]3COC4(CCCC4)C3)c(O)n2)cs1	2	-0.31
C=C(C)COc1cc(CNC[C@H]2CCc3nncn3C2)ccc1OC	9	-1.19
CCN1C(=O)C2(CCN(Cc3ccc(C(F)(F)F)cc3)CC2)C[C@H]1C(=O)NCCOC	-9	1.05
CCOC(=O)c1c(NC(=O)NC(C)(C)CCS(C)(=O)=O)c(C#N)cn1CCOC	-2	0.25
O=C(c1ccc(F)c(F)c1)N1Cc2cncnc2C1	-11	1.96
COc1ccc(F)c(C(=O)N2CCN(CCO)[C@@H]3CS(=O)(=O)C[C@@H]32)c1F	-1	0.29
O=C(CC[C@H]1NC(=O)c2ccccc2NC1=O)Nc1cn[nH]c1	-1	0.16

Compound	% Inhibition [%]	Z score
O=S(=O)(Cc1ccccc1)N1CCC(Cc2c[nH]cn2)CC1	-12	1.91
Cc1ccc(C(=O)N2CCC(c3nc4ccccc4o3)CC2)n1C	-10	1.24
C[C@@]1(C2CC2)COCCN1C(=O)Cc1csc(-c2nnc[nH]2)n1	-6	1.16
Cc1nnsc1C(=O)NCc1ccc(-c2ccco2)o1	5	-0.65
COc1cc(F)ccc1-c1c(-c2ccccc2)ncn1CC1CCOCC1	-3	0.59
O=C(NC(CC1CCCc2ccccc21)C(=O)O)c1ccncc1 (centres undefined)	-13	1.08
CCNc1nc(C(=O)N2CCC(F)(F)[C@@H](C)C2)cs1	-6	0.78
COC(=O)[C@@H]1C[C@@H](O)CN1CCN1C(=O)c2ccccc2C1=O	-10	1.46
CN1C(=O)CN(C(=O)Cn2cnc3ccccc3c2=O)c2ccccc21	-8	0.95
Cc1n[nH]cc1CNC(=O)CCCc1nnc(C(=O)Nc2cccc(F)c2)s1	-5	0.67
Cc1csc(CCNC(=O)N(C2CC2)[C@@H](C)C2CC2)n1	-11	1.45
COc1cccc(CNc2ncnc3c(-c4ccccc4)noc23)c1	-10	1.35
O=C(N[C@H]1CCS(=O)(=O)C1)c1c(-c2ccccc2)c(-c2ccccc2)n[nH]c1=O	-8	1.35
Cc1nn(C)c(C)c1CCN(C)C(=O)NCC(C)C	-11	1.08
O=C(c1ccc2ccccc2n1)N1CCC[C@H]1c1ccc2c(c1)OCCO2	-4	0.85
O=C(Nc1cc(-c2ccccc2F)nn1-c1ccccc1)c1ccc(Cl)cc1	-4	0.59
CCn1c(CN2CCc3cncnc3C2)nc2cc(F)ccc21	13	-1.39
Cc1nc(O)cc(CN2CCN(c3ccccc3Cl)CC2)n1	-12	2.06
O=C(C[C@@H]1NC(=O)NC1=O)NCCc1nc2ccccc2o1	6	-1.09
CCNc1cc(N2CCN(C(=O)c3cccc(Oc4ccc(C)nn4)c3)CC2)nc(C)n1	-25	2.21
Cc1cc(CNC(=O)C2(Nc3nccs3)CCCCC2)ncn1	0	-0.02
